# From PubChem BioAssay AID1346428 (National Center for Advancing Translational Sciences (NCATS), 2018)
# Values joined by “and” are separate entries in the source; they are usually repeats but may differ in a detail not shown here. Equal entries are not always repeated. Hit rate of the full screen: of about 48,000 compounds, about 1,200 (2.5%) were called active. Inconclusive results (about 2%) are left out.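 How the source made its calls: active means activation of at least 60% and not above a set upper limit (about 1 call in 100 departs from these limits); inconclusive means activation of 40% to 60%, or above that upper limit; inactive means activation under 40%.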 Some of the results follow. Where a structure was tested more than once in an assay, its records may differ in their call.
# Target: Probable G-protein coupled receptor 32 (Homo sapiens) (UniProt O75388)
# Sequence of UniProt O75388 (O75388 whole entry, looked up): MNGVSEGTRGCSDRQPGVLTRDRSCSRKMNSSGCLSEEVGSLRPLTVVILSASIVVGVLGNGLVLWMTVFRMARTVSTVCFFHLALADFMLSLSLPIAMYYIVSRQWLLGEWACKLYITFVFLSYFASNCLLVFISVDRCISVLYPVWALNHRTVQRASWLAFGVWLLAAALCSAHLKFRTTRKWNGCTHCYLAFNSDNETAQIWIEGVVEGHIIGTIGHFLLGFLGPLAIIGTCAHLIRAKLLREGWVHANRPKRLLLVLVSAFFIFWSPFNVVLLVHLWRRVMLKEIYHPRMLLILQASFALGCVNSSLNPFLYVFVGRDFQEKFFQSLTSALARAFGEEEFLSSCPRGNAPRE
# Assay: qHTS for Agonists of Human Resolvin D1 Receptor DRV1; further: 0% is about no effect
# Conditions: CHO-K1 GPR32 beta-arrestin PathHunter luminescence, 90 min; at 76.9 µM; stronger effect = higher value; zero percent set by DMSO-only wells
# Procedure, shortened: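 Cells are plated overnight, treated with compounds in DMSO for 90 minutes at 37 °C, and developed with PathHunter detection reagent for 1 hour before luminescence is read; signal reflects beta-arrestin binding to GPR32 in engineered CHO-K1 cells.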
row,SMILES,activation
1,CCOc1ccccc1NC(=O)c1cn(C2CCCCC2)c(=O)c2c1c1ccccc1n2C,inactive: -8.36%
2,CCN(CC)C(=O)Nc1ccc(OCC(O)CNC(C)(C)C)c(C(C)=O)c1 (centres undefined),inactive: 12.5%
3,CCc1ccccc1NC(=O)Cn1c(=O)oc2ccccc21,inactive: -5.78%
4,CCCN(C(=O)Cn1nc(Cc2cccnc2)c2ccccc2c1=O)c1ccc(C(C)C)cc1,inactive: -34.6%
5,CCOc1ccc(CCNC(c2nnc(-c3ccccc3)o2)c2ccccc2Cl)cc1OCC (centres undefined),inactive: -1.95%
6,Cc1ccc(S(=O)(=O)Nc2nc3n(n2)C(c2ccc(Cl)cc2)C=C(c2ccccc2)N3)cc1 (centres undefined),active: 88.5%
7,O=C(CN1C(=O)CC(c2ccco2)Sc2ccccc21)Nc1ccc(OC(F)(F)F)cc1 (centres undefined),inactive: 10.7%
8,COc1ccc(CCNC(=O)c2cc(-c3ccc(C)c(C)c3)nc3ccccc23)cc1OC,inactive: -17.6%
9,CCCn1c2ccc(C)cc2c2nnc(SCCN3CCCCC3)nc21,inactive: 13.3%
10,CC1=C(C(=O)OC2CCCCCC2)C(c2c(Cl)cccc2Cl)CC(=O)N1 (centres undefined),inactive: 35.7%
11,Cc1ccc(NC(=O)[C@H](Cc2ccccc2)N2Cc3ccccc3C2=O)cc1F,inactive: 4.81%
12,COc1ccc(C(=O)NCC(c2cccs2)S(=O)(=O)c2cccs2)cc1 (centres undefined),active: 83%
13,CCOc1ccc(C2CC(=O)c3c([nH]c(C(=O)OC4CCCCCC4)c3C)C2)cc1 (centres undefined),inactive: -1.88%
14,CCOCCc1nn2c(=O)cc(COC(=O)c3ccc4c(c3)OCO4)nc2s1,inactive: -7.17%
15,Cc1nn(C)c2c1c(C(F)(F)F)cc(=O)n2C(C)C(=O)NCc1ccccc1 (centres undefined),inactive: 29.6%
16,Cn1c(C(=O)Nc2cccc(Cl)c2)cc2c(=O)n(C)c3ccccc3c21,inactive: -2.3%
17,O=C(c1ccco1)N1CCNCC1,inactive: -52.8%
18,COc1ccc(-c2nc(CS(=O)CC(=O)NCc3ccccc3Cl)c(C)o2)cc1OC (centres undefined),inactive: -11.5%
19,O=S(=O)(c1ccc(Br)cc1)N1CCn2cccc2C1c1ccc(Br)cc1 (centres undefined),inactive: 17.2%
20,Cc1ccc(CNc2nc3nc(C)c(Cl)c(C)n3n2)cc1,inactive: -0.575%
21,Cc1ccc(Cl)cc1N1CCN(C(=O)C2CCN(S(=O)(=O)c3c(C)noc3/C=C/c3ccccc3F)CC2)CC1,inactive: -1.52%

row,SMILES,activation
1,Cc1cccc(NC(c2nnc(-c3ccccc3)o2)c2ccc(F)cc2Cl)c1C (centres undefined),inactive: -26.1%
2,Cc1oc2c(c(C)cc3oc(=O)c(CC(=O)NCCc4ccc(Cl)cc4)c(C)c32)c1C,inactive: -9.53%
3,Cc1ccc(-c2cn3c(n2)sc2cc(C(=O)NC4CCCCCC4)ccc23)c(C)c1,inactive: -3.82%
4,COc1cccc(-c2cn3c(n2)sc2cc(C(=O)NCCc4ccccc4)ccc23)c1,inactive: -13.7%
5,Cc1ccc(C)c(N2CCN(CCCNC(=O)c3ccc4nc(C(C)C)oc4c3)CC2)c1,inactive: 44.1%
6,O=C(NCc1ccccc1)c1ccc2c(c1)sc1nc(-c3ccc(F)cc3)cn12,inactive: -11.9%
7,CC(C)c1nn2c(=O)cc(COC(=O)COc3ccccc3F)nc2s1,inactive: -23.2%
8,CCc1ccccc1NC(=O)CSc1nc2ccccc2nc1Cc1cccc(OC)c1,inactive: -10.1%
9,Cc1cc(C)cc(NC(=O)c2cc3c(=O)n(Cc4ccco4)ccc3nc2C)c1,inactive: -6.41%
10,Cc1nc2c(-c3ccc(F)cc3)c(C)nn2c(C)c1CCC(=O)NCc1cccc(Cl)c1,inactive: -3.11%
11,CCC(=O)N1CCc2cc(Br)cc(S(=O)(=O)N3CCN(c4cccc(Cl)c4)CC3)c21,inactive: 10.6%
12,O=C(OCC1CCCO1)c1ccc2c(c1)N(Cc1cccc(F)c1)C(=O)c1ccccc1S2(=O)=O (centres undefined),inactive: -31.5%
13,CC1CCc2nc(NC(=O)Cc3ccc(Cl)cc3)sc2C1 (centres undefined),inactive: 34.5%
14,CCOc1cccc(C2c3[nH]c4ccccc4c3CCN2C(=O)Cc2cccc(OCC)c2OCC)c1 (centres undefined),inactive: 15.1%
15,Cc1cc2c(cc1S(=O)(=O)CCC(=O)N(C)Cc1ccccc1)OCC(=O)N2,inactive: -11.5%
16,CSc1cccc(NC(=O)N2CCN(S(=O)(=O)c3ccc4c(ccn4C)c3)CC2)c1,inactive: 24.1%
17,COc1ccc2c(CNCCc3ccccc3OC)c(C(=O)O)n(Cc3ccc(F)cc3Cl)c2c1,inactive: 11.2%
18,Cc1cc(C)cc(NC(=O)CN(c2cccc(C)c2C)S(=O)(=O)c2ccccc2)c1,inactive: 4.3%
19,CC1=C(C(=O)OC2CCCC2)C(c2ccc(Cl)cc2)CC(=O)N1 (centres undefined),inactive: 39.8%
20,O=C(CSc1nc(-c2ccccc2)no1)N1CCN(c2ccc(F)cc2)CC1,inactive: 24.6%
21,COc1ccc(C2=NS(=O)(=O)N(C)C(C(=O)NC(C)c3ccccc3)=C2)cc1OC (centres undefined),inactive: -8.62%

row,SMILES,activation
1,COc1cccc(N2C(=O)CSC23C(=O)N(Cc2ccccc2F)c2ccccc23)c1 (centres undefined),inactive: -12.2%
2,COc1ccc(-c2nc(SCCOc3cc(C)ccc3C(C)C)n3[nH]c(=O)cc3n2)cc1,inactive: -52.2%
3,Cc1cccc(NC(=O)C2CCN(S(=O)(=O)c3c(C)noc3/C=C/c3ccco3)CC2)c1C,inactive: -25.9%
4,NS(=O)(=O)c1ccc(CCNC(=O)CCn2c(=O)c3cccn3c3cccnc32)cc1,inactive: 0.515%
5,Cc1ccc(-n2ncc(C(=O)N(C)Cc3ccccc3)c2-n2cccc2)cc1,inactive: 4.44%
6,Cc1cc(F)ccc1NC(=O)CN1C(=O)CCc2cc(S(=O)(=O)N3CCOCC3)ccc21,inactive: -6.97%
7,COc1ccc(Cl)cc1NC(=O)c1cc2nc(-c3ccc(C)cc3)cc(C(F)(F)F)n2n1,inactive: 30.2%
8,Cc1cc(Br)ccc1NC(=O)C(NS(=O)(=O)c1cccs1)c1ccccc1 (centres undefined),inactive: -8.92%
9,CC(CNC(=O)c1cc2ccccn2n1)c1ccccc1 (centres undefined),inactive: 11.4%
10,COc1cc2nc(N3CCN(C(=O)C4COc5ccccc5O4)CC3)nc(N)c2cc1OC (centres undefined),active: 108% and inactive: 27.3%
11,CSc1nc(C)cc(Nc2cccc(C(=O)O)c2)n1,inactive: -15.9%
12,CCOC(=O)C(C)Nc1ncnc2onc(C)c12 (centres undefined),inactive: -16.7%
13,COc1cc(NC(=O)CCCN2C(=O)CCn3nc(-c4cn(C)c5ccccc45)cc32)cc(OC)c1,inactive: 20.1%
14,Cc1c(NC(=O)c2ccc(-c3ccc(F)cc3)o2)cccc1-c1nc2ncccc2o1,inactive: 21.6%
15,Cc1sc2c(c1C)c(=O)n(-c1ccc(Cl)cc1)c(=O)n2CC(=O)c1ccccc1,inactive: -7.96%
16,COc1cccc(C(=O)Nc2ccc3nc(SCC(=O)N4CCc5ccccc54)sc3c2)c1,inactive: -6.83%
17,O=C(c1cnc(N2CCCCC2)c2ccccc12)N1CCN(c2ccc(F)cc2)CC1,inactive: -24.3%
18,Fc1ccc(Nc2nc(-c3ccc(F)cc3)c3c(n2)-c2ccccc2OC3)cc1,inactive: -5.16%
19,O=c1[nH]c2ccc(S(=O)(=O)Nc3cc(Cl)ccc3O)cc2o1,inactive: 37.5%
20,CCOc1ccccc1CNC(=O)c1cc2oc3ccccc3c2n1CC,inactive: -25.6%
21,COc1cccc(CNC(=O)c2ccc3c(c2)sc2nc(-c4ccccc4)cn23)c1OC,inactive: -5.18%

row,SMILES,activation
1,Cc1ccc(-c2nc3scc(CCNS(=O)(=O)c4c(C)noc4C)n3n2)cc1,inactive: -10.8%
2,Cn1c(=O)n(C)c2cc(N3CCOCC3)c(NS(=O)(=O)c3ccc(Br)cc3)cc21,inactive: 37.5%
3,CCOc1cc(CNCCSc2nnnn2C)cc(Cl)c1OCc1ccc(Cl)cc1,inactive: 25.7%
4,Cc1cccc(N2CCN(C(=O)CCCn3ncn4c(cc5occc54)c3=O)CC2)c1C,inactive: -0.997%
5,COc1ccc(-c2cc(C(=O)NCCc3ccccc3)c3c(-c4ccccc4)[nH]nc3n2)cc1,inactive: -19.9%
6,O=C(Cc1ccc(F)cc1)Nc1cccc(-c2nc3cccnc3s2)c1,inactive: -13.5%
7,O=C(NCC(c1cccnc1)N1CCc2ccccc2C1)C(=O)Nc1cccc(Cl)c1 (centres undefined),inactive: -12.6%
8,Cc1ccc(CCNS(=O)(=O)c2ccc3c(c2)CCN3C(=O)CCC(=O)O)cc1,inactive: -3.84%
9,CCc1ccc(NC(=O)CCc2c(C)n(C)c3cc(-c4ccccc4C)nn3c2=O)cc1,inactive: -6.88%
10,CC(=O)N1CCc2c(sc3c2c(=O)n(-c2ccccc2)c(=O)n3Cc2cccc(C(F)(F)F)c2)C1,inactive: -5.46%
11,Cc1ccc(/C=C/c2nc3ccccc3n2S(=O)(=O)c2ccc(Br)cc2)cc1,inactive: 41.4%
12,Cc1ccccc1C(=O)N1CCCCC1CCN1CCCCC1 (centres undefined),inactive: 0.234%
13,COc1ccc(N2CCN(C(=O)CCc3c(C)nc4cc(-c5cccc(F)c5)nn4c3C)CC2)cc1,inactive: -5.58%
14,CCOC(=O)c1cnc2c(ccc3ccccc32)c1Nc1ccc(OC)cc1OC,inactive: -6.9%
15,COc1ccc(C(=O)c2c(N)c(-c3nc(-c4ccccc4)cs3)c3ccccn23)cc1,inactive: 4%
16,CCc1nn(CC(=O)NCCCN2CCN(C)CC2)c(=O)c2cc3occc3n12,inactive: -16.4%
17,CSc1ncc(C(=O)N2CCN(c3ccc(Cl)cc3)CC2)c(C)n1,inactive: -4.83%
18,COC(=O)c1c(NC(=O)COc2ccc(Cl)cc2C)sc2c1CCCCC2,inactive: -0.458%
19,COc1ccc(OC)c(NC(=O)CSC2=Nc3ccccc3C3=NC(CCC(=O)NC4CCCCC4)C(=O)N23)c1 (centres undefined),inactive: -5.1%
20,CSc1cccc(NC(=O)CC(c2ccc(F)cc2)N2Cc3ccccc3C2=O)c1 (centres undefined),inactive: -20.2%
21,COc1ccc(C)cc1NC(=O)c1oc2ccc(S(=O)(=O)N3CCOCC3)cc2c1C,inactive: -8.99%
